A lower IC50 marks a more sensitive line; fits outside the tested doses are given as limits. The AUC spans the tested range (256-fold, ending at the top dose) of the same fit; values near 1 show little effect. Where the top dose is marked as inferred, it was derived from the fitted curves, not read from the paper.
What was measured:
[1] = compound: Nc1[nH]nc2nnc(-c3c(-c4ccccc4)nn4ccccc34)cc12 [FR-180204]; experiment: Viability of human cancer cell lines after 72 h of drug (GDSC screen); settings: top dose 20 µM; top dose inferred
Protocol: (§1)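 Human cancer cell lines in 384-well plates, medium with 10% serum, drug for 72 h over a 256-fold dose range (nine 2-fold or five 4-fold steps up to the top dose). Adherent lines were fixed and stained with the nucleic acid dye Syto60, suspension lines read with resazurin; signal relative to control wells, capped at 0 and 100%. One two-parameter sigmoid per drug and line, fitted in a mixed model over all curves with the slope shared within a line.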

[2] = compound: O=C(/C=C/c1cccnc1)NCCCCC1CCN(C(=O)c2ccccc2)CC1 [FK866]; experiment: as above; settings: top dose 1 µM; top dose inferred
Protocol: as §1

| Cell Line | AUC [1] | IC50 [1] [nM] | AUC [2] | IC50 [2] [nM] |
| --- | --- | --- | --- | --- |
| DOV13 (ovary, adherent) | 0.938 | > 20000 | 0.242 | 9.86 |
| DSH1 (bladder, adherent) | 0.949 | > 20000 | 0.897 | > 1000 |
| DU-145 (prostate, adherent) | 0.976 | > 20000 | 0.374 | 26.9 |
| DU-4475 (breast, suspension) | 0.961 | > 20000 | 0.02 | < 3.91 |
| Daoy (medulloblastoma, adherent) | 0.984 | > 20000 | 0.562 | 90.7 |
| Daudi (Burkitt lymphoma, suspension) | 0.988 | > 20000 | 0.186 | 8.51 |
| Detroit562 (head and neck, adherent) | 0.986 | > 20000 | 0.68 | 194 |
| DoTc2-4510 (cervix, adherent) | 0.984 | > 20000 | 0.846 | 673 |
| EB2 (Burkitt lymphoma, suspension) | 0.955 | > 20000 | 0.19 | 8.4 |
| EB-3 (Burkitt lymphoma, suspension) | 0.948 | > 20000 | 0.045 | < 3.91 |
| EBC-1 (lung squamous cell carcinoma, adherent) | 0.968 | > 20000 | 0.691 | 232 |
| EC-GI-10 (oesophagus, adherent) | 0.981 | > 20000 | 0.085 | < 3.91 |
| ECC10 (stomach, suspension) | 0.98 | > 20000 | 0.032 | < 3.91 |
| EFM-19 (breast, adherent) | 0.972 | > 20000 | 0.828 | > 1000 |
| EFM-192A (breast, adherent) | 0.965 | > 20000 | 0.889 | > 1000 |
| EFO-21 (ovary, adherent) | 0.962 | > 20000 | 0.782 | 629 |
| EFO-27 (ovary, adherent) | 0.929 | > 20000 | 0.55 | 88.8 |
| EGI-1 (biliary tract, adherent) | 0.969 | > 20000 | 0.668 | 213 |
| EJM (lymphoid neoplasm, semi-adherent) | 0.972 | > 20000 | 0.261 | 14.8 |
| EKVX (lung adenocarcinoma, adherent) | 0.949 | > 20000 | 0.962 | > 1000 |
| EM-2 (chronic myeloid leukaemia, suspension) | 0.848 | 18000 | 0.059 | < 3.91 |
| EMC-BAC-1 (lung adenocarcinoma, adherent) | 0.894 | > 20000 | 0.252 | 10.8 |
| EMC-BAC-2 (lung adenocarcinoma, adherent) | 0.97 | > 20000 | 0.138 | < 3.91 |
| EN (endometrium, adherent) | 0.983 | > 20000 | 0.508 | 65.9 |
| EPLC-272H (lung squamous cell carcinoma, adherent) | 0.949 | > 20000 | 0.97 | > 1000 |

| Cell Line | AUC [1] | IC50 [1] [nM] | AUC [2] | IC50 [2] [nM] |
| --- | --- | --- | --- | --- |
| ES1 (Ewing sarcoma, adherent) | 0.94 | > 20000 | 0.035 | < 3.91 |
| ES3 (Ewing sarcoma, adherent) | 0.962 | > 20000 | 0.14 | 4.26 |
| ES4 (Ewing sarcoma, adherent) | 0.881 | > 20000 | 0.168 | 5.02 |
| ES5 (Ewing sarcoma, adherent) | 0.916 | > 20000 | 0.255 | 11 |
| ES6 (Ewing sarcoma, adherent) | 0.958 | > 20000 | 0.098 | < 3.91 |
| ES7 (Ewing sarcoma, adherent) | 0.947 | > 20000 | 0.039 | < 3.91 |
| ES8 (Ewing sarcoma, adherent) | 0.922 | > 20000 | 0.081 | < 3.91 |
| ESO26 (oesophagus, adherent) | 0.923 | > 20000 | 0.416 | 37.4 |
| ESO51 (oesophagus, semi-adherent) | 0.979 | > 20000 | 0.166 | < 3.91 |
| ESS-1 (endometrium, adherent) | 0.99 | > 20000 | 0.194 | 8.74 |
| ETK-1 (biliary tract, adherent) | 0.966 | > 20000 | 0.337 | 20.7 |
| EVSA-T (breast, adherent) | 0.986 | > 20000 | 0.954 | > 1000 |
| EW-1 (Ewing sarcoma, semi-adherent) | 0.941 | > 20000 | 0.987 | > 1000 |
| EW-3 (Ewing sarcoma, adherent) | 0.947 | > 20000 | 0.058 | < 3.91 |
| EW-7 (Ewing sarcoma, semi-adherent) | 0.968 | > 20000 | 0.025 | < 3.91 |
| EW-13 (Ewing sarcoma, suspension) | 0.939 | > 20000 | 0.094 | < 3.91 |
| EW-16 (Ewing sarcoma, adherent) | 0.901 | > 20000 | 0.082 | < 3.91 |
| EW-18 (Ewing sarcoma, suspension) | 0.915 | > 20000 | 0.197 | 7.3 |
| EW-24 (Ewing sarcoma, semi-adherent) | 0.932 | > 20000 | 0.037 | < 3.91 |
| EoL-1-cell (haematopoietic neoplasm, suspension) | 0.916 | > 20000 | 0.022 | < 3.91 |
| FLO-1 (oesophagus, adherent) | 0.917 | > 20000 | 0.199 | 5.08 |
| FTC-133 (thyroid, adherent) | 0.985 | > 20000 | 0.653 | 173 |
| FU97 (stomach, adherent) | 0.974 | > 20000 | 0.873 | > 1000 |
| FU-OV-1 (ovary, adherent) | 0.903 | > 20000 | 0.909 | > 1000 |
| Farage (B-cell lymphoma, suspension) | 0.993 | > 20000 | 0.992 | > 1000 |

| Cell Line | AUC [1] | IC50 [1] [nM] | AUC [2] | IC50 [2] [nM] |
| --- | --- | --- | --- | --- |
| G-292 Clone A141B1 (osteosarcoma, adherent) | 0.976 | > 20000 | 0.679 | 268 |
| G-361 (melanoma, adherent) | 0.98 | > 20000 | 0.341 | 23.1 |
| G-401 (kidney, adherent) | 0.956 | > 20000 | 0.978 | > 1000 |
| G-402 (soft tissue, adherent) | 0.971 | > 20000 | 0.313 | 15.6 |
| G-MEL (melanoma, adherent) | 0.982 | > 20000 | 0.793 | 452 |
| GAK (melanoma, adherent) | 0.989 | > 20000 | 0.861 | 781 |
| GAMG (glioma, adherent) | 0.984 | > 20000 | 0.844 | 769 |
| GB-1 (glioma, adherent) | 0.975 | > 20000 | 0.059 | < 3.91 |
| GCT (soft tissue, adherent) | 0.988 | > 20000 | 0.317 | 20.1 |
| GDM-1 (acute myeloid leukaemia, suspension) | 0.853 | 14600 | 0.044 | < 3.91 |
| GI-1 (glioma, adherent) | 0.987 | > 20000 | 0.18 | 7.22 |
| GI-ME-N (neuroblastoma, adherent) | 0.952 | > 20000 | 0.114 | < 3.91 |
| GMS-10 (glioma, adherent) | 0.984 | > 20000 | 0.626 | 139 |
| GOTO (neuroblastoma, adherent) | 0.983 | > 20000 | 0.053 | < 3.91 |
| GP5d (large intestine, adherent) | 0.947 | > 20000 | 0.482 | 56 |
| GR-ST (lymphoblastic leukaemia, suspension) | 0.962 | > 20000 | 0.061 | < 3.91 |
| GRANTA-519 (B-cell lymphoma, suspension) | 0.991 | > 20000 | 0.062 | < 3.91 |
| GT3TKB (stomach, adherent) | 0.99 | > 20000 | 0.038 | < 3.91 |
| H4 (glioma, adherent) | 0.981 | > 20000 | 0.105 | < 3.91 |
| H9 (lymphoid neoplasm, suspension) | 0.952 | > 20000 | 0.064 | < 3.91 |
| H513 (mesothelioma, semi-adherent) | 0.907 | > 20000 | 0.978 | > 1000 |
| H2369 (mesothelioma, adherent) | 0.985 | > 20000 | 0.808 | 537 |
| H2373 (mesothelioma, adherent) | 0.972 | > 20000 | 0.654 | 188 |
| H2461 (mesothelioma, adherent) | 0.978 | > 20000 | 0.526 | 75 |
| H2591 (mesothelioma, adherent) | 0.976 | > 20000 | 0.935 | > 1000 |

| Cell Line | AUC [1] | IC50 [1] [nM] | AUC [2] | IC50 [2] [nM] |
| --- | --- | --- | --- | --- |
| H2595 (mesothelioma, adherent) | 0.961 | > 20000 | 0.927 | > 1000 |
| H2722 (mesothelioma, adherent) | 0.983 | > 20000 | 0.977 | > 1000 |
| H2731 (mesothelioma, adherent) | 0.923 | > 20000 | 0.972 | > 1000 |
| H2795 (mesothelioma, adherent) | 0.977 | > 20000 | 0.674 | 189 |
| H2803 (mesothelioma, adherent) | 0.966 | > 20000 | 0.886 | > 1000 |
| H2804 (mesothelioma, adherent) | 0.979 | > 20000 | 0.958 | > 1000 |
| H2818 (mesothelioma, adherent) | 0.989 | > 20000 | 0.916 | > 1000 |
| H2869 (mesothelioma, adherent) | 0.983 | > 20000 | 0.982 | > 1000 |
| H3118 (head and neck, adherent) | 0.94 | > 20000 | 0.087 | < 3.91 |
| H3255 (lung adenocarcinoma, adherent) | 0.845 | 18700 | 0.959 | > 1000 |
| HA7-RCC (kidney, adherent) | 0.959 | > 20000 | 0.594 | 117 |
| HAL-01 (lymphoblastic leukaemia, suspension) | 0.87 | 15100 | 0.027 | < 3.91 |
| HARA (lung squamous cell carcinoma, adherent) | 0.97 | > 20000 | 0.281 | 13.3 |
| HC-1 (hairy cell leukaemia, suspension) | 0.978 | > 20000 | 0.07 | < 3.91 |
| HCC38 (breast, adherent) | 0.976 | > 20000 | 0.985 | > 1000 |
| HCC70 (breast, adherent) | 0.882 | > 20000 | 0.73 | 278 |
| HCC202 (breast, adherent) | 0.939 | > 20000 | 0.912 | > 1000 |
| HCC1143 (breast, adherent) | 0.955 | > 20000 | 0.363 | 22.4 |
| HCC1187 (breast, suspension) | 0.981 | > 20000 | 0.787 | 413 |
| HCC1395 (breast, adherent) | 0.983 | > 20000 | 0.842 | 921 |
| HCC1419 (breast, adherent) | 0.965 | > 20000 | 0.977 | > 1000 |
| HCC1428 (breast, adherent) | 0.984 | > 20000 | 0.965 | > 1000 |
| HCC1500 (breast, adherent) | 0.987 | > 20000 | 0.447 | 44.5 |
| HCC1569 (breast, adherent) | 0.962 | > 20000 | 0.551 | 90.4 |
